We go through 14 compounds from article PMC8113725, “Structure–activity relationship of ipglycermide binding to phosphoglycerate mutases” (The Journal of Biological Chemistry, 2021).

Bridge positions count the residues as written; N and C are the ends. Square brackets hold non-standard residues; d marks the D form. Peptide text beside a SMILES is read from it. Nva = CCC[C@H](N)C(=O)O

The target of experiment [1] is C. elegans iPGM (Caenorhabditis elegans, UniProt G5EFZ1). Kind of experiment: PGM enzyme assay (enolase–pyruvate kinase coupled, Kinase-Glo Plus end point) and IC50 determination. The format is biochemical. As to conditions: Ce iPGM Ave IC50 (M), 5 nM enzyme.
Experiment [2] has as its target B. malayi iPGM (Brugia malayi, UniProt Q4VWF8). Kind of experiment: biochemical. As to conditions: Bm iPGM Ave IC50 (M), 5 nM enzyme.
UniProt Q4VWF8, sequence (Q4VWF8 whole entry): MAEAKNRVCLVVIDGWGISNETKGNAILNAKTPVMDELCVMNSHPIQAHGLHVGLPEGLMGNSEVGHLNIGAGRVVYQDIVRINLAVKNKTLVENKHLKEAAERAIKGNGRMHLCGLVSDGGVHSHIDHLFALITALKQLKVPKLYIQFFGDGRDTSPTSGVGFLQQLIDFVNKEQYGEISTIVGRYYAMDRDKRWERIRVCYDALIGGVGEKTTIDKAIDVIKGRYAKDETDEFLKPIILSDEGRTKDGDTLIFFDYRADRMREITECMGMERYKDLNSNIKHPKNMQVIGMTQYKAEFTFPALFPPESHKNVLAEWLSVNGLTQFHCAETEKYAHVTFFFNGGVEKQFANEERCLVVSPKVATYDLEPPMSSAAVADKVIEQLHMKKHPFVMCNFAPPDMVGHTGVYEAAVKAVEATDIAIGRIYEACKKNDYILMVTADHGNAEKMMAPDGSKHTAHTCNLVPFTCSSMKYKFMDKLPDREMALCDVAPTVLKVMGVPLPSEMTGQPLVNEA
The target in experiment [3] is O. volvulus iPGM (Onchocerca volvulus, UniProt I6LDA6). Kind of experiment: biochemical. The following applies: Ov iPGM Ave IC50 (M), 5 nM enzyme.
UniProt I6LDA6, sequence (I6LDA6 whole entry): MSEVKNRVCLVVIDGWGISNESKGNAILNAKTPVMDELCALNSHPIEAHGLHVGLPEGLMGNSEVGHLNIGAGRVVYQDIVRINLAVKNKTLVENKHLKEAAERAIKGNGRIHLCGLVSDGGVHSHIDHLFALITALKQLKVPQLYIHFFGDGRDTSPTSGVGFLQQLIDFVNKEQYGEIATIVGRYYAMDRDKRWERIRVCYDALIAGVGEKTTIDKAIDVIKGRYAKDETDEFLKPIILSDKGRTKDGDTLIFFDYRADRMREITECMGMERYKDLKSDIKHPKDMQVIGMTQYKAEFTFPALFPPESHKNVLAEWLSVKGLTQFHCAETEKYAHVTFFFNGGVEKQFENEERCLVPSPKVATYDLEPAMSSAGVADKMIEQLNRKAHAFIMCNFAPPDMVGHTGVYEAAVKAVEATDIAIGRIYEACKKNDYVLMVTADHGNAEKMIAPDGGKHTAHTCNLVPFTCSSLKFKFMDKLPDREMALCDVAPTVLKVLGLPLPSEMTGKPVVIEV
Setting [4] is: Supplementary Table 4a, Ce-2 analogs, average of N=2-3 independent experiments.
Setting [5] is: Supplementary Table 4b, Ce-2d analogs.

In general, IC50 refers to the point on the concentration scale where inhibition reaches its midpoint. For the compound `CC(C)C[C@H](NC(=O)[C@H](Cc1ccc(O)cc1)NC(=O)[C@@H]1CSCC(=O)N[C@H](Cc2ccc(O)cc2)C(=O)N[C@@H](CC(=O)O)C(=O)N[C@@H](Cc2ccc(O)cc2)C(=O)N2CCC[C@H]2C(=O)NCC(=O)N[C@@H](CC(=O)O)C(=O)N[C@@H](Cc2ccc(O)cc2)C(=O)N1)C(=O)N[C@@H](Cc1ccc(O)cc1)C(=O)NCC(=O)N[C@H](C(=O)NO)[C@@H](C)O` [Ce-2 C14NHOH], the figures for the IC50 in experiment [1] (setting [4]), in experiment [2] (setting [4]) and in experiment [3] (setting [4]) were 2.55e-09 M, 6.7e-09 M and 3.33e-09 M, respectively.

As for `CC(C)C[C@H](NC(=O)[C@H](Cc1ccc(O)cc1)NC(=O)[C@@H]1CSCC(=O)N[C@H](Cc2ccc(O)cc2)C(=O)N[C@@H](CC(=O)O)C(=O)N[C@@H](Cc2c[nH]c3ccccc23)C(=O)N2CCC[C@H]2C(=O)NCC(=O)N[C@@H](CC(=O)O)C(=O)N[C@@H](Cc2ccc(O)cc2)C(=O)N1)C(=O)N[C@@H](Cc1ccc(O)cc1)C(N)=O` [Ce-2d Y3W], the IC50 in experiment [1] (setting [5]) came to 7.59e-07 M; in experiment [2] (setting [5]), 2.68e-06 M; in experiment [3] (setting [5]), 1.12e-05 M.

For `COc1ccc(C[C@H](NC(=O)[C@@H]2CSCC(=O)N[C@H](Cc3ccc(O)cc3)C(=O)N[C@@H](CC(=O)O)C(=O)N[C@@H](Cc3ccc(O)cc3)C(=O)N3CCC[C@H]3C(=O)NCC(=O)N[C@@H](CC(=O)O)C(=O)N[C@@H](Cc3ccc(O)cc3)C(=O)N2)C(=O)N[C@@H](CC(C)C)C(=O)N[C@@H](Cc2ccc(O)cc2)C(N)=O)cc1` [Ce-2d Y9(4OMe)F], the 50% inhibitory concentration (IC50) in experiment [1] (setting [5]) stood at 3.79e-08 M; in experiment [2] (setting [5]), 1.2e-06 M; in experiment [3] (setting [5]), 3.27e-06 M.

Turning to `CCC[C@@H]1NC(=O)[C@@H](Cc2ccc(O)cc2)NC(=O)CSC[C@@H](C(=O)N[C@@H](Cc2ccc(O)cc2)C(=O)N[C@@H](CC(C)C)C(=O)N[C@@H](Cc2ccc(O)cc2)C(=O)NCC(=O)N[C@H](C(=O)N[C@@H](CS)C(N)=O)[C@@H](C)O)NC(=O)[C@H](Cc2ccc(O)cc2)NC(=O)[C@H](CC(=O)O)NC(=O)CNC(=O)[C@@H]2CCCN2C(=O)[C@H](Cc2ccc(O)cc2)NC1=O` [Ce-2 D2Nva] ({CH2CO}-[dY][Nva]YPGDYCYLYGTC-NH2; thioether N-8), the concentration for half-maximal inhibition (IC50) amounted to 1.69e-09 M in experiment [1] (setting [4]), 1.37e-09 M in experiment [2] (setting [4]) and 2.2e-09 M in experiment [3] (setting [4]).

Regarding `CC(C)C[C@H](NC(=O)[C@H](Cc1ccc(O)cc1)NC(=O)[C@@H]1CSCC(=O)N[C@H](Cc2ccc(O)cc2)C(=O)N[C@@H](CC(=O)O)C(=O)N[C@@H](Cc2ccc(O)cc2)C(=O)N2CCC[C@H]2C(=O)NCC(=O)N[C@@H](CC(N)=O)C(=O)N[C@@H](Cc2ccc(O)cc2)C(=O)N1)C(=O)N[C@@H](Cc1ccc(O)cc1)C(N)=O` [Ce-2d D6N], the IC50 in experiment [1] (setting [5]) was determined as 3.81e-07 M; in experiment [2] (setting [5]), 3.72e-06 M; in experiment [3] (setting [5]), 9.41e-06 M.

Turning to `COc1ccc(C[C@@H]2NC(=O)[C@H](CC(=O)O)NC(=O)CNC(=O)[C@@H]3CCCN3C(=O)[C@H](Cc3ccc(O)cc3)NC(=O)[C@H](CC(=O)O)NC(=O)[C@@H](Cc3ccc(O)cc3)NC(=O)CSC[C@@H](C(=O)N[C@@H](Cc3ccc(O)cc3)C(=O)N[C@@H](CC(C)C)C(=O)N[C@@H](Cc3ccc(O)cc3)C(N)=O)NC2=O)cc1` [Ce-2d Y7(4OMe)F], the half-inhibitory concentration (IC50) in experiment [1] (setting [5]) came out at 5.69e-09 M; in experiment [2] (setting [5]) it was 5.15e-08 M; in experiment [3] (setting [5]), 1.61e-07 M.

With `CC(C)C[C@H](NC(=O)[C@H](Cc1ccc(O)cc1)NC(=O)[C@@H]1CSCC(=O)N[C@H](Cc2ccc(O)cc2)C(=O)N[C@@H](CC(=O)O)C(=O)N[C@@H](Cc2ccc(O)cc2)C(=O)N2CCC[C@H]2C(=O)NCC(=O)N[C@@H](CC(=O)O)C(=O)N[C@@H](Cc2ccc(O)cc2)C(=O)N1)C(=O)N[C@@H](Cc1ccc(O)cc1)C(=O)NCC(=O)NCC(=O)NO` [Ce-2 T13G, C14NHOH], the values for the IC50 in experiment [1] (setting [4]), in experiment [2] (setting [4]) and in experiment [3] (setting [4]) were 4.96e-09 M, 1.29e-07 M and 2.02e-07 M, respectively.

For `CC(C)C[C@H](NC(=O)[C@H](Cc1ccc(O)cc1)NC(=O)[C@@H]1CSCC(=O)N[C@H](Cc2ccc(O)cc2)C(=O)N[C@@H](CC(=O)O)C(=O)N[C@@H](Cc2ccc(F)cc2)C(=O)N2CCC[C@H]2C(=O)NCC(=O)N[C@@H](CC(=O)O)C(=O)N[C@@H](Cc2ccc(O)cc2)C(=O)N1)C(=O)N[C@@H](Cc1ccc(O)cc1)C(N)=O` [Ce-2d Y3(4F)F], the IC50 in experiment [1] (setting [5]) came out at 3.76e-08 M; in experiment [2] (setting [5]), 9.19e-08 M; in experiment [3] (setting [5]), 3.76e-07 M.

With `COc1ccc(C[C@@H]2NC(=O)CSC[C@@H](C(=O)N[C@@H](Cc3ccc(O)cc3)C(=O)N[C@@H](CC(C)C)C(=O)N[C@@H](Cc3ccc(O)cc3)C(N)=O)NC(=O)[C@H](Cc3ccc(O)cc3)NC(=O)[C@H](CC(=O)O)NC(=O)CNC(=O)[C@@H]3CCCN3C(=O)[C@H](Cc3ccc(O)cc3)NC(=O)[C@H](CC(=O)O)NC2=O)cc1` [Ce-2d Y1(4OMe)F], the IC50 worked out at 4.48e-09 M in experiment [1] (setting [5]), 1.58e-08 M in experiment [2] (setting [5]) and 3.87e-08 M in experiment [3] (setting [5]).

As for `CC(C)C[C@H](NC(=O)[C@H](Cc1ccccc1)NC(=O)[C@@H]1CSCC(=O)N[C@H](Cc2ccc(O)cc2)C(=O)N[C@@H](CC(=O)O)C(=O)N[C@@H](Cc2ccc(O)cc2)C(=O)N2CCC[C@H]2C(=O)NCC(=O)N[C@@H](CC(=O)O)C(=O)N[C@@H](Cc2ccccc2)C(=O)N1)C(=O)N[C@@H](Cc1ccc(O)cc1)C(=O)NCC(=O)N[C@H](C(=O)N[C@@H](CS)C(N)=O)[C@@H](C)O` [Ce-2 Y7F, Y9F] ({CH2CO}-[dY]DYPGDFCFLYGTC-NH2; thioether N-8), the IC50 in experiment [1] (setting [4]) was found to be 2.02e-09 M; in experiment [2] (setting [4]) it was 2.49e-08 M; in experiment [3] (setting [4]), 2.36e-08 M.

As for `COc1ccc(C[C@H](NC(=O)[C@H](CC(C)C)NC(=O)[C@H](Cc2ccc(O)cc2)NC(=O)[C@@H]2CSCC(=O)N[C@H](Cc3ccc(O)cc3)C(=O)N[C@@H](CC(=O)O)C(=O)N[C@@H](Cc3ccc(O)cc3)C(=O)N3CCC[C@H]3C(=O)NCC(=O)N[C@@H](CC(=O)O)C(=O)N[C@@H](Cc3ccc(O)cc3)C(=O)N2)C(N)=O)cc1` [Ce-2d Y11(4OMe)F], the IC50 in experiment [1] (setting [5]) is 6.31e-09 M; in experiment [2] (setting [5]), 6.97e-08 M; in experiment [3] (setting [5]) it was 1.55e-07 M.

`CC(C)C[C@H](NC(=O)[C@H](Cc1ccc(O)cc1)NC(=O)[C@@H]1CSCC(=O)N[C@H](Cc2ccc(O)cc2)C(=O)NCC(=O)N[C@@H](Cc2ccc(O)cc2)C(=O)N2CCC[C@H]2C(=O)NCC(=O)N[C@@H](CC(=O)O)C(=O)N[C@@H](Cc2ccc(O)cc2)C(=O)N1)C(=O)N[C@@H](Cc1ccc(O)cc1)C(N)=O` [Ce-2d D2G]: the IC50 stood at 5.66e-08 M in experiment [1] (setting [5]), 9.9e-07 M in experiment [2] (setting [5]) and 3.86e-06 M in experiment [3] (setting [5]).

`CC(C)C[C@H](NC(=O)[C@H](Cc1ccc(O)cc1)NC(=O)[C@@H]1CSCC(=O)N[C@H](Cc2ccc(O)cc2)C(=O)N[C@@H](CC(=O)O)C(=O)N[C@@H](Cc2ccc(O)cc2)C(=O)N2CCC[C@H]2C(=O)N[C@@H](CCC(N)=O)C(=O)N[C@@H](CC(=O)O)C(=O)N[C@@H](Cc2ccc(O)cc2)C(=O)N1)C(=O)N[C@@H](Cc1ccc(O)cc1)C(N)=O` [Ce-2d G5Q]: the IC50 in experiment [1] (setting [5]) is 1.19e-07 M; in experiment [2] (setting [5]), 6.62e-06 M; in experiment [3] (setting [5]), 1.3e-05 M.

For `CC(C)[C@H](NC(=O)[C@H](Cc1ccc(O)cc1)NC(=O)[C@@H]1CSCC(=O)N[C@H](Cc2ccc(O)cc2)C(=O)N[C@@H](CC(=O)O)C(=O)N[C@@H](Cc2ccc(O)cc2)C(=O)N2CCC[C@H]2C(=O)NCC(=O)N[C@@H](CC(=O)O)C(=O)N[C@@H](Cc2ccc(O)cc2)C(=O)N1)C(=O)N[C@@H](Cc1ccc(O)cc1)C(N)=O` [Ce-2d L10V], the values for the concentration for half-maximal inhibition (IC50) in experiment [1] (setting [5]), in experiment [2] (setting [5]) and in experiment [3] (setting [5]) were 1.37e-07 M, 1.31e-06 M and 6.66e-06 M, respectively.
